Measured values: PubChem BioAssay AID2546 (National Center for Advancing Translational Sciences (NCATS), 2010)
Where “and” joins values, the source holds several entries; their conditions need not be identical. Equal values may be shown once. Out of some 310,000 compounds screened, about 11,000 (3.5%) were called active. This list was built around the results that the source calls inconclusive (neither active nor inactive); the mix of calls is not that of the screen. Calls come from the whole dose curve; as a rule, active = well fitted inhibition curve with a large enough effect; inconclusive = small, poorly fitted or top-dose-only effect, or effect the other way; inactive = flat fitted curve, though single readings scatter. A potency beside an inconclusive call is a rough fit, not a confirmed value.

Assay: VP16 counterscreen qHTS for inhibitors of ROR gamma transcriptional activity;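 note: Gal4-VP16 expression switched on by copper sulfate through the metallothionein promoter; nearly all actives have a fitted effect of over 50% in size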
Conditions: Drosophila S2 Gal4-VP16 UAS-luciferase, luminescence, 20 h; activity, negative = inhibition: at 53.6 µM (top of the series)
% is set by controls: 0 for no effect and ±100 for the full control effect; potency is the fitted concentration of half-maximal effect; tags give direction and shape of the fitted curve.

Compound | Potency | activity, negative = inhibition
CC(=O)NC1=C(NC2CCS(=O)(=O)C2)C(=O)c2ccccc2C1=O (configuration not stated) | active: 17.8 µM | 
COc1ccc(/C=C/C(=O)c2c(C)cc(C)[nH]c2=O)c2ccccc12 | active: 14.1 µM | 
CN(C)CCN(C)Cc1ccccc1Sc1cccc2ccccc12 |  | inactive: -13%
Cn1c(N)c(C(=O)COC(=O)CCCc2nc3ccccc3s2)c(=O)n(C)c1=O | inconclusive: 8.91 µM [inhibitor, partial curve] | 
CCCS(=O)(=O)NCCc1cc2ccc(OC)cc2[nH]c1=O | inconclusive: 11.2 µM [activator, single point] | 
C=CCn1c(CSc2ccc(C)cc2)n[nH]c1=S | active: 14.1 µM | 
CCOc1cc2[nH]c(=S)n(CCCOC)c(=O)c2cc1OCC | inconclusive: 35.5 µM [inhibitor, single point] | 
COc1cc(OC)cc(-c2nnc(SCc3c(F)cccc3Cl)o2)c1 | inconclusive: 3.16 µM [inhibitor, single point] | 
O=C(CCC(=O)Nc1cccc(Cl)c1)N/N=C/c1cc([N+](=O)[O-])ccc1O | inconclusive: 35.5 µM [inhibitor, single point] | 
O=C(CC1S/C(=N/N=C2CCCCCC2)NC1=O)Nc1ccccc1C(F)(F)F (configuration not stated) | inconclusive: 10 µM [inhibitor, single point] | 
COc1ccc(/C=N/n2cnc3c([nH]c4ccc(C)cc43)c2=O)cc1CN1CCCC1 | inconclusive: 25.1 µM [inhibitor, single point] | 
O=C(CSc1nnc(-c2cccc(F)c2)o1)Nc1nncs1 | inconclusive: 28.2 µM [inhibitor, single point] | 
CC(=O)N(CCCN1CCOCC1)Cc1ccncc1 |  | inactive: 8.59%
CCSc1ccccc1C(=O)n1nnc2ccccc21 | inconclusive: 35.5 µM [inhibitor, single point] | 
Cn1c(N2CCOCC2)c(/C=N/OC(=O)c2ccc(F)cc2)c2ccccc21 | active: 2.24 µM | 
CC(C)CCn1c(=O)c2ccccc2n2c(CN(C)Cc3ccccc3)nnc12 |  | inactive: -3.63%
CCc1ccc2oc(C(=O)N3CCN(c4ccc(OC)cc4)CC3)cc(=O)c2c1 |  | inactive: -1.85%
O=C1C=CC(=C(c2ccc(O)cc2)c2ccc(O)cc2)C=C1 | inconclusive: 31.6 µM [inhibitor, single point] | 
O=C1c2ccccc2C(Nc2ccccc2)N1Cc1ccc2c(c1)OCO2 (configuration not stated) |  | inactive: 0.242%
COC(=O)[C@H]1C[C@H]1[C@@H](NC(=O)c1ccc[nH]1)c1ccccc1 | inconclusive: 3.55 µM [inhibitor, full curve] | 
Cc1ncc([N+](=O)[O-])n1CCOC(=O)Nc1ccc([N+](=O)[O-])cc1 |  | inactive: 3.67%
COc1ccc(CNC(=S)Nc2cc(C)ccc2C)cc1 | active: 7.08 µM | 
COc1ccc(NC(=S)NCc2ccccc2Cl)c(OC)c1 | active: 7.08 µM | 
CC(C)(C)c1cc(CSC(=S)NC2CCS(=O)(=O)C2)c(Br)c(C(C)(C)C)c1 (configuration not stated) | inconclusive: 25.1 µM [inhibitor, single point] | 

Compound | Potency | activity, negative = inhibition
CCN(Cc1ccccc1)C(c1ccc(C)cc1)c1nnnn1C(C)(C)CC (configuration not stated) | inconclusive: 25.1 µM [inhibitor, single point] | 
Cc1nn(-c2ccccn2)c2c1C(c1c(F)cccc1Cl)C1=C(N2)c2ccccc2C1=O (configuration not stated) | active: 7.94 µM | 
OC(COC(c1ccc(F)cc1)c1ccc(F)cc1)CN1CCc2ccccc2C1 (configuration not stated) | inconclusive: 22.4 µM [inhibitor, single point] | 
Nc1ccc(S(=O)(=O)Nc2ccc(C(=O)c3ccccc3)cc2)cc1 | inconclusive: 35.5 µM [inhibitor, single point] | 
CCOC(=O)CN(C(=O)CSc1nnc(-c2cccc(OC)c2)o1)c1ccc(F)cc1 | inconclusive: 0.355 µM [inhibitor, partial curve, poor fit] | 
C=CCN(c1ccccc1)S(=O)(=O)c1cccc(C(=O)N(CC)CC(=O)Nc2c(F)cccc2F)c1 | inconclusive: 22.4 µM [inhibitor, single point] | 
Cc1cc(NC(=O)c2ccc3c(c2)OCCO3)no1 | active: 7.08 µM | 
CSc1ccc(CNC(=O)C2Cc3cc(S(=O)(=O)N4CCCCC4)ccc3N2C(C)=O)cc1 (configuration not stated) | inconclusive: 12.6 µM [activator, single point] | 
COc1ccc(-c2nc3ccccc3n2Cc2ccccc2)cc1 | inconclusive: 31.6 µM [inhibitor, single point] | 
CCC(C)(C)C1CCC(=NNC(=O)c2ccoc2C)CC1 (configuration not stated) | inconclusive: 35.5 µM [inhibitor, single point] | 
Cc1ccccc1NC(=O)/C(C#N)=C/c1ccc[nH]1 | inconclusive: 7.08 µM [activator, partial curve] | 
N#C/C(=C/c1ccc(Sc2nc3ccccc3[nH]2)o1)c1ccccc1F | inconclusive: 35.5 µM [inhibitor, single point] | 
O=C(Nc1nccs1)c1ccc(Br)c(S(=O)(=O)N2CCCC2)c1 | inconclusive: 31.6 µM [inhibitor, single point] | 
c1ccc(-c2cc3ccccc3[nH]2)cc1 | inconclusive: 7.08 µM [inhibitor, full curve] | 
COc1ccc(-c2csc(NC(=S)NC(=O)c3ccc(S(=O)(=O)N(C)C)cc3)n2)cc1OC | inconclusive: 10 µM [inhibitor, partial curve] | 
Cn1c(=S)oc2ccccc21 |  | inactive: -10.5%
Clc1ccccc1C1=CC(c2ccco2)n2nnnc2N1 (configuration not stated) |  | inactive: -15%
O=C(Nc1ccc(-c2nc3c(ccc4ccccc43)o2)cc1)c1ccco1 | inconclusive: 11.2 µM [inhibitor, single point] | 
COc1ccc2oc(=Nc3ccccc3)c(-c3nc4ccccc4[nH]3)cc2c1 | inconclusive: 22.4 µM [inhibitor, single point] | 
CC1=NNC(=O)/C1=C\c1cn(-c2ccccc2)nc1-c1ccc(Cl)cc1 | active: 3.16 µM | 
O=[N+]([O-])c1cc(Oc2cccnc2)cc([N+](=O)[O-])c1 | inconclusive: 35.5 µM [inhibitor, single point] | 
O=C(O)c1ccccc1C(=O)N1N=C2/C(=C/c3cccc([N+](=O)[O-])c3)CCCC2C1c1cccc([N+](=O)[O-])c1 (configuration not stated) |  | inactive: 14.9%
CCn1c(SCC(=O)N/N=C/c2ccncc2)nc2ccccc21 | inconclusive: 35.5 µM [inhibitor, single point] | 
N#C/C(=C\c1ccco1)Sc1nc2ccccc2s1 | active: 12.6 µM | 

Compound | Potency | activity, negative = inhibition
O=C(O)C1CN(c2ncccc2[N+](=O)[O-])C1 |  | inactive: 3.2%
O=C(Nc1nc(-c2ccc3c(c2)OCO3)cs1)c1ccncc1 | inconclusive: 35.5 µM [inhibitor, single point] | 
Cc1ccccc1CS(=O)(=O)c1ccc(C(=O)N2CCOCC2)cc1[N+](=O)[O-] |  | inactive: 18.1%
Cc1cc(S(=O)(=O)Nc2ccc3ccccc3c2)c(C)s1 | inconclusive: 25.1 µM [inhibitor, single point] | 
O=C(C[n+]1cc(-c2ccc(F)cc2)n2c1CCC2)c1cccs1 |  | inactive: 16.6%
O=C1CCNc2cc3ccccc3cc21 | inconclusive: 35.5 µM [inhibitor, single point] | 
CCOC(=O)Cc1csc(SCC(=O)Nc2cccc(C#N)c2)n1 |  | inactive: 5.12%
CN(C)C(=O)CSc1cccc2cccnc12 | inconclusive: 25.1 µM [inhibitor, single point] | 
Cc1ccc(-c2csc(N/N=C/C=C/c3ccccc3)n2)cc1 | inconclusive: 22.4 µM [inhibitor, single point] | 
O=C(/C=C/c1ccc2c(c1)OCO2)Nc1nc(-c2ccc(F)cc2F)cs1 | inconclusive: 12.6 µM [inhibitor, single point] | 
O=C(OCC(=O)c1cccs1)c1cccc(C(=O)OCC(=O)c2cccs2)n1 | inconclusive: 12.6 µM [inhibitor, partial curve] | 
COc1ccc(-c2[nH]c(-c3ccc(Cl)cc3)nc2SCC(=O)Nc2nccs2)cc1 | inconclusive: 35.5 µM [inhibitor, single point] | 
Cc1ccccc1NC(=O)c1cc(C(=O)c2cc(Cl)ccc2O)cn(-c2ccccc2C)c1=O |  | inactive: -26.6%
Cc1[nH]n(C(N)=S)c(=O)c1N=Nc1cc(C(F)(F)F)ccc1Cl | inconclusive: 7.08 µM [inhibitor, partial curve] | 
Cc1ccc(NC(=O)CN(C)S(=O)(=O)c2cccs2)cc1C | active: 7.94 µM | 
Nc1nc(SCc2ccc(Cl)c(Cl)c2)n[nH]1 |  | inactive: -1.03%
CCCS(=O)(=O)c1c(S(=O)(=O)CCC)c2c(N)cccn2c1C(=O)c1ccc(Br)cc1 |  | inactive: -1.84%
O=S(=O)(NC1=NCCC1)c1cccc(NC(=S)NCCc2ccccc2)c1 | inconclusive: 3.16 µM [inhibitor, single point] | 
S=c1[nH]cc(-c2ccccc2)n1-c1ccccc1Cl | active: 7.08 µM | 
CC1CCCCC12NC(=O)N(CC(=O)Nc1ccccc1-c1ccccc1)C2=O (configuration not stated) | inconclusive: 20 µM [inhibitor, single point] | 
Cc1ccc(S(=O)(=O)C2(C(=O)Nc3nccs3)CC2)cc1 | inconclusive: 15.8 µM [inhibitor, single point] | 
CN(C)S(=O)(=O)c1cccc(COC(=O)c2cccnc2Cl)c1 | inconclusive: 35.5 µM [inhibitor, single point] | 
CN(/N=C/c1ccc(O)cc1O)c1nc(-c2ccccc2)cc(-c2ccccc2)n1 | inconclusive: 25.1 µM [inhibitor, single point] | 
COc1ccc(C(CCN2CCCC2)c2c(OC)cc(OC)c3c(-c4ccccc4)cc(=O)oc23)cc1 (configuration not stated) | inactive and inconclusive: 17.8 µM [inhibitor, single point] | 
